# Reference: the RNAGym collection of RNA variant scans (doi:10.7554/elife.90254)
# The source gives no read counts; variants with many changes may rest on few reads.
# B1: LINE1-mini (parent)
# chain: GGCAGAGCUCAACACAGCGUGGCAAAGUGGCUGUGGCUAGACUGCC
# Variants of: B1
# Experiment: self-cleavage, relative activity (ratio to wild type); higher = more cleavage; in vitro, sequencing; the parent is a self-cleaving ribozyme
row,Variant,self-cleavage
1,C8G U20C C23U C31G G33A G44C,0.07
2,G1U C3A U9A,0.43
3,A14U U20A G36U,0.43
4,U34G G35U G40U,0.03
5,C8G A16G C23G G27A,0.04
6,G22C U32A U34A C37U C45U,0.03
7,G5C C15G U20G C31A G33A U38C,0.01
8,C3A A4G C13G,0.42
9,A4C U32C G44A,0.04
10,G2A G7C A24G G27C G40C C42A,0.18
11,C18U A26U U34G,0.11
12,G1U C10A C15A C18G,0
13,A16C C23U A25C C31A G35C,0.03
14,G7A G27C A41C C46U,0.08
15,G27C G29U C31A,0.75
16,A4G C15U G21C A26G,0.49
17,C8G U9A G22U,0.08
18,G27C C31G G35U A39G,0.02
19,C18A G19U A25G G30C,0.18
20,C10A C18A A41C,0.04
21,G2U A12C A14G A26U,0.02
22,G7A A11G A12C G19C,0.01
23,U9C C13G A24C U28G G30U U32A,0.01
24,G5A A6G G17U A26C C37A,0.01

row,Variant,self-cleavage
1,A6G C15U U38C A41U C45G C46A,0
2,G27A G30C U32A G40C,0.03
3,C13A G21U C31G,0.02
4,C3G A6C A14C G17C A26G G27A A41C C42U,0.01
5,G21C C23G U38G,0.01
6,G2U A6G G22C A26U G33C,0.01
7,C13A G22U C46A,0.11
8,G1A C18A A26U G30A A41C,0.14
9,U9G G30A A39U A41C C45A,0.06
10,G2A G19U G33C C37G,0.09
11,A11G A12U G21C,0.03
12,A4U C8A C15A G21C G30C C46G,0.09
13,U28G G29U G40A,0.69
14,C15U C42U G44A,0.12
15,G2A G22C U32A,0.16
16,A4C C15A A26C G35A C46A,0.03
17,U9C A11G U28G C45U C46A,0.01
18,A25G G29A U34G,0.23
19,C10A A16U A24G G33A C42U,0
20,C3U G5A C13A A14C U38A G44A,0.14
21,U9A C18A A26U,0.01
22,U9A G29U A39U,0.41
23,G1U C10A C46A,0.06
24,G2U C13U G19U,0.02

row,Variant,self-cleavage
1,G2U C8A U28G,0.06
2,A4U A11U G19U G22A C31A,0.05
3,A12U C13G A16C G21U,0
4,C3A C10U G35U,0.13
5,G27A U28G U32A C37U,0.12
6,C10U C13A G21U,0
7,G27C U28A A39G,0.04
8,C15A C18A G19A G36U C42G,0.07
9,C3U C8A C15A G21C G22A C23A C37U,0.05
10,C3G A25C C46A,0.06
11,C10U G29U G40C C46A,0.04
12,C8A A12U G27C,0.04
13,C3G C23U C31A,0.02
14,A12C A25C U34A C46A,0.01
15,A12U A25C G30A,0.5
16,A4G C10G C15A U28A A39G,0.01
17,A11C A12G C13G U28G G33U,0.01
18,G5U C10G U34A,0.04
19,C3U G22U A25G G40C U43A,0.05
20,G2U C8U U38C C42U,0.01
21,A12U G21C C23U A25C G35C,0.04
22,U9C A16C C42U,0.01
23,G1A G7A C23A A24U,0.27
24,A4U C8U G29A,0.03

row,Variant,self-cleavage
1,C8G U9A G22U C37G,0.04
2,A6C G17A G27C C46G,0.04
3,A4C G21U U38A A39G C42G,0.03
4,C23U U28G G33C A39U,0.04
5,U34C A41G C46U,0.07
6,G2U G5U G17A A39G C42G C45U,0.01
7,A6U A14C U34A,0.01
8,G5A C15U A39G,0.02
9,C15A G21U G35U,0.2
10,G21U C31A C37G U38A U43C,0.04
11,G1A A14G A24U A26U,0.21
12,G5U U9A C18A C23A,0.05
13,A6U G22A G27U G35C G40A,0.41
14,A6G G17U C18A,0
15,G7C C13U A41G,0.03
16,G5U G36C C46U,0.03
17,G5A C18U G21U C46A,0.05
18,G27A G30A C42G,0.01
19,G5C G21A G22C A26C,0.03
20,A12U A26U A39G,0.04
21,C10A C23A G29U G33U C45A,0.02
22,G5U C10A G19A C31A,0.02
23,G2A C13A G17U,0.42
24,C15A G17A U28C,0.03

row,Variant,self-cleavage
1,G7A C8G A11G,0.03
2,G17A U28G C37U C42A,0.04
3,C3U A4C A12C A14C G40A,0.02
4,A14G C31U U34C A39U G44A,0.21
5,G29U G30U U34A,0.06
6,U20G C23U G27C U38A,0.17
7,C10A U32C C37U C42U C46G,0.01
8,C8G C13A C15A,0.13
9,G1C G7A C23A,0.06
10,G2A G19C G22A U43A,0.05
11,C8U C37U C45A,0.09
12,A4C G21C G36C,0.02
13,A16C G22U C46G,0.07
14,C8U C13G U20C G22A,0.28
15,G1C U20A A26U,0.09
16,G1A U9G C18U A24C U28A G36U C45G,0.04
17,G1A A14G A25C A26U U32G G44U,0.06
18,C8G U9A U20G U34A C45U,0.4
19,C18A G27A U43C,0.07
20,G1U U20G G33U U34G A39U,0.02
21,C3U C10A G19A,0.08
22,U9G A14G U28G G30U,0.04
23,C23A G30A C31U,0.29
24,A24C G27A U28A C37G,0.02

row,Variant,self-cleavage
1,C10G G19C C42G C46U,0.62
2,G5U A16U C18A G27C,0.02
3,U20C A24C A25U U28C,0.64
4,G5U C23A U38C G40A C46U,0.01
5,A12U U28C G40C,0.06
6,C15A C23U A26G G29U,0.04
7,C8A A11U G17U U20C G35C G44U,0.01
8,C3A G22A A24U C37A A39C,0.27
9,A4C C10U G27A C42G,0.07
10,G2A A4C C8U C13A G17A C18U,0.15
11,G1U C15U U32C,0.08
12,A26G G30U G33U,0.07
13,G2U G5C C13A A14U C46U,0.01
14,A24G A26U A39C,0.12
15,G1C C3G U9G C15A,0.02
16,G1C U9G C15U,0.04
17,G7C A16G G19A G33A,0.01
18,G7U G35A C42A,0.75
19,C18U U28C C37U,0.01
20,C3A A12U G17C U20A A25U,0.07
21,G7C A14U C23A G35C,0.11
22,G21U A24U A26C,1.2
23,G1U G21U C31U,0.1
24,G1C G2U G5A A16C A24U,0.03

row,Variant,self-cleavage
1,C3A C31A A39U,0.13
2,A12U G17A C18A G35U,0.02
3,C10A C37U G44U C45A,0
4,C18U C23U G29U U32C,1.12
5,G1A A4U A14C A24C C37G U38C,0.01
6,G19C C23G U32G U38G,0.01
7,A16C G17A G19U G21A G22U G35U C45G,0
8,C10U A12C C23A A25C G36A C37G,0
9,C15U C18U C23U C46A,0.07
10,A6U C15A A25C A39G,0.05
11,G2U C13U G27A G30U G33C,0.04
12,G7C C31U G33C G40U,0.07
13,G27A G33A A39C,0.05
14,G17U G22C C23A,0.47
15,A6U U20A A25G A39C,0.08
16,G1A U32A C37U C46U,0.04
17,C3A C13A U28G C31A G36U,0.17
18,G2A C10A G27U,0.06
19,G17A A25G C42U,0.07
20,U9A A16U A25U G27C G30U G33C,0.02
21,C3A C15G G22C C42U U43C,0.03
22,A4U G30C C37A,0.08
23,G1A G7A A14C G19C U28A,0.03
